target: T1, Biotin-histone; assay: stopped-flow tryptophan fluorescence, avidin 0.5 µM, biotin-protein 5.0 µM
T1 construct: also called histone-bio; biotinylated histone
Procedure: (§1) UV-VIS spectra were obtained and used for protein concentration determination using a UV-VIS spectrometer (Lambda 2, PerkinElmer). Melting points (mp) were measured with a Laboratory Devices Mel-Temp. Number and weight average molecular weights (Mₙ and Mw) and the polydispersity index (Mw/Mₙ) were estimated by gel permeation chromatography (GPC) on a Water 2695 Series with a data processor, equipped with three columns (Waters Ultrahydrogel Linier, 500 and 250), using Dulbecco's Phosphate Buffered Saline with 0.02 wt % sodium azide as an eluent at flow rate 1.0 mL/min, with detection by a refractive index (RI) detector. Pullulan standards (PSS-Polymer Standards Service—USA Inc., Amherst, Mass.) were used for calibration. Matrix-Assisted Laser Desorption Ionization Time-of-Flight Spectrometry (MALDI-ToF MS) was performed with a Perseptive Biosystems Voyager Elite MALDI-TOF spectrometer. Dynamic Light Scattering (DLS) data were collected on a Malvern Zetasizer nano-ZS. The concentration of the sample solution was kept at 1.0 mg/mL. The hydrodynamic diameter of samples was measured three times (5 run to each measurement, reported as number distribution) in 0.1 M sodium phosphate, pH 8. Biotin and bio-PEG binding kinetics were measured using a stopped-flow spectrometer with fluorescence detection (Applied Photophysics SX20). […] Instrument permitted to collect 1000 data points throughput the reaction (0.1-450 s). Bio-pro binding kinetics were obtained using a stopped-flow accessory mounted on PTI QuantaMaster-400 fluorometer (Horiba Instruments Inc.). The excitation wavelength was set to 295 nm and emission wavelength was monitored at 340 nm. Ten data points per second were collected and data were acquired using FelixGX software (Horiba Instruments Inc.). For all experiments, avidin concentration was 0.5 μM (final) and biotin, bio-PEG or bio-pro concentrations were held at 5.0 μM (final). Reactions were initiated by mixing equal volumes of avidin with its substrates in 0.1 M phosphate buffer, pH 8. Fluorescence was measured in volts.
Data were fit to single exponential functions using F(t) = F_{∞} − ΔFexp(−kobst) equation, where, kobs is the observed first-order rate constant, F_{∞} is the final value of fluorescence and ΔF is the amplitude.

Row | k (kobs, observed first-order rate constant) | Binder
1 | 0.034 s⁻¹ | Avidin-pCBMA152 (other, UniProt P02701 25-152, looked up, two pCBMA chains (DP 152) grown by ATRP from each double-headed initiator, an average of 7 initiators per avidin monomer, including K45, K71 and K111, mature; High-density protein-polymer conjugate, double-headed ATRP initiator; also called high-density avidin-pCBMA152) ARKCSLTGKWTNDLGSNMTIGAVNSRGEFTGTYITAVTATSNEIKESPLHGTQNTINKRTQPTFGFTVNWKFSESTTVFTGQCFIDRNGKEVLKTMWLLRSSVNDIGDDWKATRVGINIFTRLRTQKE
2 | 0.039 s⁻¹ | Avidin-pCBMA58 (other, UniProt P02701 25-152, looked up, two pCBMA chains (DP 58) grown by ATRP from each double-headed initiator, an average of 7 initiators per avidin monomer, including K45, K71 and K111, mature; High-density protein-polymer conjugate, double-headed ATRP initiator, 0.5 chains/nm^2; also called high-density avidin-pCBMA58) ARKCSLTGKWTNDLGSNMTIGAVNSRGEFTGTYITAVTATSNEIKESPLHGTQNTINKRTQPTFGFTVNWKFSESTTVFTGQCFIDRNGKEVLKTMWLLRSSVNDIGDDWKATRVGINIFTRLRTQKE
3 | 0.035 s⁻¹ | Avidin-pCBMA109 (other, UniProt P02701 25-152, looked up, two pCBMA chains (DP 109) grown by ATRP from each double-headed initiator, an average of 7 initiators per avidin monomer, including K45, K71 and K111, mature; High-density protein-polymer conjugate, double-headed ATRP initiator; also called high-density avidin-pCBMA109) ARKCSLTGKWTNDLGSNMTIGAVNSRGEFTGTYITAVTATSNEIKESPLHGTQNTINKRTQPTFGFTVNWKFSESTTVFTGQCFIDRNGKEVLKTMWLLRSSVNDIGDDWKATRVGINIFTRLRTQKE
4 | 15.7 s⁻¹ | Native avidin (other, UniProt P02701 25-152, looked up, mature; Purified from egg white; Form 'mature' inferred from purification from the natural source; also called avidin from egg white) ARKCSLTGKWTNDLGSNMTIGAVNSRGEFTGTYITAVTATSNEIKESPLHGTQNTINKRTQPTFGFTVNWKFSESTTVFTGQCFIDRNGKEVLKTMWLLRSSVNDIGDDWKATRVGINIFTRLRTQKE
5 | 0.032 s⁻¹ | Avidin-pCBMA182 (other, UniProt P02701 25-152, looked up, two pCBMA chains (DP 182) grown by ATRP from each double-headed initiator, an average of 7 initiators per avidin monomer, including K45, K71 and K111, mature; High-density protein-polymer conjugate, double-headed ATRP initiator; also called high-density avidin-pCBMA182) ARKCSLTGKWTNDLGSNMTIGAVNSRGEFTGTYITAVTATSNEIKESPLHGTQNTINKRTQPTFGFTVNWKFSESTTVFTGQCFIDRNGKEVLKTMWLLRSSVNDIGDDWKATRVGINIFTRLRTQKE

target: T1, Biotin-histone; assay: as above; remark: another data set of the same source
Procedure: as §1, with “Pullulan” for “UV-VIS spectra were obtained and used for protein concentration determination using a UV-VIS spectrometer (Lambda 2, PerkinElmer). Melting points (mp) were measured with a Laboratory Devices Mel-Temp. Number and weight average molecular weights (Mₙ and Mw) and the polydispersity index (Mw/Mₙ) were estimated by gel permeation chromatography (GPC) on a Water 2695 Series with a data processor, equipped with three columns (Waters Ultrahydrogel Linier, 500 and 250), using Dulbecco's Phosphate Buffered Saline with 0.02 wt % sodium azide as an eluent at flow rate 1.0 mL/min, with detection by a refractive index (RI) detector. Pullulan”
Data were fit to single exponential functions using F(t) = F_{∞} − ΔFexp(−kobst) equation, where, kobs is the observed first-order rate constant, F_{∞} is the final value of fluorescence and ΔF is the amplitude. In case of native avidin kinetics the data were fit to single exponential functions using F(t) = F_{∞} + ΔFexp(−kobst) equation, where, kobs is the observed first-order rate constant, F_{∞} is the final value of fluorescence and ΔF is the amplitude.

Row | k (kobs, observed first-order rate constant) | Binder
6 | 0.245 s⁻¹ | Avidin-pCBMA170 (other, UniProt P02701 25-152, looked up, pCBMA (DP 170) grown by ATRP from single-headed initiator on an average of 8 amine groups per avidin monomer, including K45, K71 and K111, mature; Low-density protein-polymer conjugate, single-headed ATRP initiator; also called low-density avidin-pCBMA170) ARKCSLTGKWTNDLGSNMTIGAVNSRGEFTGTYITAVTATSNEIKESPLHGTQNTINKRTQPTFGFTVNWKFSESTTVFTGQCFIDRNGKEVLKTMWLLRSSVNDIGDDWKATRVGINIFTRLRTQKE
7 | 0.231 s⁻¹ | Avidin-pCBMA232 (other, UniProt P02701 25-152, looked up, pCBMA (DP 232) grown by ATRP from single-headed initiator on an average of 8 amine groups per avidin monomer, including K45, K71 and K111, mature; Low-density protein-polymer conjugate, single-headed ATRP initiator; also called low-density avidin-pCBMA232) ARKCSLTGKWTNDLGSNMTIGAVNSRGEFTGTYITAVTATSNEIKESPLHGTQNTINKRTQPTFGFTVNWKFSESTTVFTGQCFIDRNGKEVLKTMWLLRSSVNDIGDDWKATRVGINIFTRLRTQKE
8 | 0.252 s⁻¹ | Avidin-pCBMA121 (other, UniProt P02701 25-152, looked up, pCBMA (DP 121) grown by ATRP from single-headed initiator on an average of 8 amine groups per avidin monomer, including K45, K71 and K111, mature; Low-density protein-polymer conjugate, single-headed ATRP initiator; also called low-density avidin-pCBMA121) ARKCSLTGKWTNDLGSNMTIGAVNSRGEFTGTYITAVTATSNEIKESPLHGTQNTINKRTQPTFGFTVNWKFSESTTVFTGQCFIDRNGKEVLKTMWLLRSSVNDIGDDWKATRVGINIFTRLRTQKE
9 | 0.282 s⁻¹ | Avidin-pCBMA56 (other, UniProt P02701 25-152, looked up, pCBMA (DP 56) grown by ATRP from single-headed initiator on an average of 8 amine groups per avidin monomer, including K45, K71 and K111, mature; Low-density protein-polymer conjugate, single-headed ATRP initiator, 0.29 polymer chains/nm^2; also called low-density avidin-pCBMA56; avidin-pCBMA50 (target DP)) ARKCSLTGKWTNDLGSNMTIGAVNSRGEFTGTYITAVTATSNEIKESPLHGTQNTINKRTQPTFGFTVNWKFSESTTVFTGQCFIDRNGKEVLKTMWLLRSSVNDIGDDWKATRVGINIFTRLRTQKE
10 | 15.7 s⁻¹ | Native avidin (other, UniProt P02701 25-152, looked up, mature; Purified from egg white; Form 'mature' inferred from purification from the natural source; also called avidin from egg white) ARKCSLTGKWTNDLGSNMTIGAVNSRGEFTGTYITAVTATSNEIKESPLHGTQNTINKRTQPTFGFTVNWKFSESTTVFTGQCFIDRNGKEVLKTMWLLRSSVNDIGDDWKATRVGINIFTRLRTQKE

Source: US20210388337A1 (CARNEGIE MELLON UNIVERSITY, published 2021)
